# Experimental data reported in the supplement of paper PMC7726561.
# The full ranking holds about 1,400 sequences; the median of “thermal melting temperature (Tm) of peptide-HLA complex” is about 60, and the lowest 2% start at about 45. The list shows a part of the results.
# B1: unnamed (peptide)
# chain: EPAFPHTDL
# B2: unnamed (peptide)
# chain: SPDSNRVTGI
# B3: unnamed (peptide)
# chain: RPQGGQDIL
# B4: unnamed (peptide)
# chain: SPRQTLEL
# B5: unnamed (peptide)
# chain: SPWADNTAL
# B6: unnamed (peptide)
# chain: SPRPPAEGF
# B7: unnamed (peptide)
# chain: APLPDGRSL
# B8: unnamed (peptide)
# chain: VPDAHKDHAL
# B9: unnamed (peptide)
# chain: YPHEPTAVF
# B10: unnamed (peptide)
# chain: SPRSPSTTYL
# B11: unnamed (peptide)
# chain: VPRSASVLL
# B12: unnamed (peptide)
# chain: SPRLSLLYL
# B13: unnamed (peptide)
# chain: KPMEGNFEEI
# B14: unnamed (peptide)
# chain: APFLRQEFI
# B15: unnamed (peptide)
# chain: APVQRPKL
# B16: unnamed (peptide)
# chain: KPINFSVIL
# Biological target: HLA-B*07:02
# Test: thermal melting temperature (Tm) of peptide-HLA complex; higher = more thermostable pHLA complex
# Details: C1R-B*07:02
# 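Also: cell lysates heated 10 min at 37–73 °C, remaining pHLA pulled down with pan-class I antibody, peptides quantified by DIA-MS versus 37 °C, Tm where half the complex is lost.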
row,Sequence,thermal melting temperature [°C]
1,B1,58.6
2,B2,56.1
3,B3,57.9
4,B4,57.8
5,B5,62.1
6,B6,55.8
7,B7,58.4
8,B8,67.1
9,B9,63.8
10,B10,58.8
11,B11,60.1
12,B12,63.4
13,B13,58.1
14,B14,63
15,B15,58.6
16,B16,61
